# Hit rate of the full screen: of about 310,000 compounds, about 14,000 (4.5%) showed an effect of 50% or more. Effects have a minus sign here. The list shows a part of the results.
# Biological target: human ether-à-go-go-related gene (hERG) potassium channel (human, UniProt Q12809)
# Test: primary screen, population patch clamp on CHO cells stably expressing hERG
# 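Also: peak tail current of the secondary pulse compared with the same well before compound.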
# human ether-à-go-go-related gene (hERG) potassium channel, sequence (Q12809 whole entry, looked up): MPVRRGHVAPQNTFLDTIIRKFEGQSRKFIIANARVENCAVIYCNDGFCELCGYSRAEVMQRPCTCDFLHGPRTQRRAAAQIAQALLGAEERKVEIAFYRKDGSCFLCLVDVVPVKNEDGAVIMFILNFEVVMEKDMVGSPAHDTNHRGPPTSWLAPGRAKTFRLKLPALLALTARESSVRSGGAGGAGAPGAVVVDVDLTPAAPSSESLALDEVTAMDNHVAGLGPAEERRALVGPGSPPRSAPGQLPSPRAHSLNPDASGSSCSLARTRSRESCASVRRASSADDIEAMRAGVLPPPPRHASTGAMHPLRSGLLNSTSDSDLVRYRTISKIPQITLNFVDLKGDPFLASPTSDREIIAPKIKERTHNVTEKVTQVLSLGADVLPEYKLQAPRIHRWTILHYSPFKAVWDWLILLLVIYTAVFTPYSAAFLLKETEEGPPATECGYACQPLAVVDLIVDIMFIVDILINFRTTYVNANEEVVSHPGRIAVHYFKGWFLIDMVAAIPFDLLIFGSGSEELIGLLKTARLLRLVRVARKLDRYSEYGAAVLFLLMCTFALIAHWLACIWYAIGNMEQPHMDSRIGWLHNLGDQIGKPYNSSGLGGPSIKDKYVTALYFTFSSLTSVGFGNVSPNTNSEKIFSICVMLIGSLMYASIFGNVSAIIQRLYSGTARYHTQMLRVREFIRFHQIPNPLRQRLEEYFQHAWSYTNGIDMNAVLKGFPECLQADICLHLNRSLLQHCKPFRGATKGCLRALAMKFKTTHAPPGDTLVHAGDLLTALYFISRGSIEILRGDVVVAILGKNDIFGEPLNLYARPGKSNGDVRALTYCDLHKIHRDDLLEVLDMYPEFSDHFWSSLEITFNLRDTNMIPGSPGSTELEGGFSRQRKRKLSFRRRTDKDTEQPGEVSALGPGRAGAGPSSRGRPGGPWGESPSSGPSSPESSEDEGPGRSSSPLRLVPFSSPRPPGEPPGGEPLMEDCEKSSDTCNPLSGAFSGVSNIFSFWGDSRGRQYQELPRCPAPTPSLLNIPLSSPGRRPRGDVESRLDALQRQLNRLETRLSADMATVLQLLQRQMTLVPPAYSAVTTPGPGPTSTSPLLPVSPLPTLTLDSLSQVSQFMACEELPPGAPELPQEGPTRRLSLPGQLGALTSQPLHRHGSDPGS
row,SMILES,"hERG current change (%, negative = inhibition) at 10uM"
1,O=C(NC(=S)Nc1ccc(N2CCOCC2)cc1)c1cccs1,34.1%
2,COc1ccc(C2(CNC(=O)c3ccccc3[N+](=O)[O-])CCOCC2)cc1,14.4%
3,CCC(C(=O)N1CCN(S(=O)(=O)c2ccc(F)cc2)CC1)c1ccccc1 (stereo not shown),-19%
4,COc1ccc(NC(=O)c2cc(-c3ccco3)nc3ccccc23)cc1S(=O)(=O)N1CCOCC1,-1%
5,Cc1c(C(=O)OCC(=O)N(C)c2ccccc2)cccc1[N+](=O)[O-],-13.4%
6,N#CC1=C(N)OC2=C(CC/C2=C\c2ccc(F)cc2)C1c1ccc(F)cc1 (stereo not shown),4.13%
7,O=c1c(Cc2c(F)cccc2Cl)c(O)ccn1C1CC1,-11.7%
8,COc1ccc(-c2noc(CCC(=O)NCc3cccnc3)n2)cc1,-6.1%
9,COc1ccc(S(=O)(=O)N2CCOCC2)cc1NC(=O)CN1CCCC1,20.2%
10,Oc1ccccc1N=Cc1ccc[nH]1,4.42%
11,CCN(CC(=O)Nc1ccc2c(c1)OCCO2)C(=O)c1ccc(C)c(S(=O)(=O)N2CCOCC2)c1,4.73%
12,Oc1ccccc1C1=NN(c2ccccc2)C(c2ccccc2)C1 (stereo not shown),5.04%
13,COc1cc(OC)cc(C(=O)Nn2cc(C(=O)N3CCN(C)CC3)c3ccccc3c2=O)c1,2.72%
14,Cc1ccc(Cn2c(CCCO)nc3ccccc32)cc1,2.26%
15,COc1ccc(NC(=S)NCCC(c2ccccc2)c2ccccc2)c(OC)c1,2.53%
16,CCN(CC)S(=O)(=O)c1ccc2nc(COC(=O)c3n[nH]c4ccccc34)[nH]c2c1,5.75%
17,COC(=O)CN(C(=S)Nc1ccc(Cl)cc1)C1CC(=O)N(c2ccc(OC)cc2)C1=O (stereo not shown),-13.8%
18,CCC(=O)Nc1ccc2c(c1)nc1n2CCN(C2CCCCC2)C1,-6.11%
19,CCC(=O)NN1CCN(c2ccncc2S(=O)(=O)N2CCCCC2)CC1,5.14%
20,O=C(CSc1nccn(-c2ccc(Br)cc2)c1=O)NCc1ccccc1,-3.38%
21,CN(C(=O)c1cc(S(=O)(=O)N2CCCCC2)c[nH]1)C1CCCCC1,1.06%
22,CN(C)CC(c1ccccc1)c1ccccc1.Cl,5.32%

row,SMILES,"hERG current change (%, negative = inhibition) at 10uM"
1,CC(C)(C)NC(=O)C(c1ccncc1)N(Cc1cccs1)C(=O)c1csnn1 (stereo not shown),-0.691%
2,Cc1nn(Cc2ccc(C(=O)N3N=C(C(F)F)CC3(O)C(F)F)cc2)c(C)c1[N+](=O)[O-] (stereo not shown),-62.9%
3,CCOC(=O)c1c(C)n(Cc2ccco2)c2c1cc(O)c1ccccc12,6.11%
4,CCc1ccc(NC(=O)NCc2ccc3c(c2)OCO3)cc1,-11.4%
5,CCOC(=O)C1=C(c2ccccc2)NC(=O)NC1c1ccc(OC)c(OC)c1 (stereo not shown),48%
6,Cc1ccccc1-n1c(-c2ccc(Br)o2)n[nH]c1=S,13.5%
7,Cc1ccccc1N1C(=O)CC(=O)N(c2ccccc2C)C1=O,28.1%
8,O=C(O)COc1ccccc1/C=C1\SC(=Nc2ccc(F)cc2)N(c2ccc(F)cc2)C1=O,-2.08%
9,O=C(Nc1ccccc1C(=O)O)c1cccc(NC(=O)c2ccccc2Br)c1,9.46%
10,COc1cc(NS(=O)(=O)c2ccc(NC(=O)/C=C/C(=O)O)cc2)nc(OC)n1,6.18%
11,COc1ccc(N2CCN(C(CNS(=O)(=O)c3ccccc3)c3ccccc3)CC2)cc1 (stereo not shown),-22.5%
12,Cc1ccc(OCC(=O)N/N=C/c2cccn2C)cc1,-0.613%
13,Cc1nn(-c2ccccc2)c(C)c1CN(C)C(=O)c1ccc(S(=O)(=O)NCc2ccco2)cc1,-21.2%
14,O=C(CCC(=O)N1CCCC1)Nc1nnc(C(F)(F)F)s1,2.85%
15,COC(=O)c1ccc(NC(=O)CSc2nnc(COc3ccc4c(c3)CCCC4)o2)cc1,4.81%
16,CC1C(=O)N2CCCc3cc(NC(=O)c4ccccc4F)cc1c32 (stereo not shown),-5.53%
17,COc1ccc2c(CC(=O)NCCN3C(=O)S/C(=C\c4cccnc4)C3=O)coc2c1,-9.62%
18,Cc1c(C(=O)NN)nc2ccccn12,6.94%
19,O=C1NC(=O)N(CCC2=CCCCC2)C(=O)/C1=C\c1cccs1,1.15%
20,CC(C)OC(=O)CSc1nnc(-c2cnccn2)n1-c1ccccc1,8.56%
21,COc1ccc(N=N/C(C(C)=O)=C(/C)O)cc1,-24.5%
22,CC(C)[C@H](NC(=O)[C@@H]1Cc2ccccc2CN1)C(=O)Nc1ccc2c(c1)OCO2,-25.8%

row,SMILES,"hERG current change (%, negative = inhibition) at 10uM"
1,CN(CC(=O)Nc1ccc(N2CCOCC2)cc1)C(=O)C1CCCC1,23.1%
2,CCCOc1cccc(-c2cc(C(=O)NNC(=S)NCC)c3ccccc3n2)c1,7.6%
3,Cc1cc(C)n2nc(C(=O)N/N=C/c3cccs3)nc2n1,14.1%
4,CCC1CCCCN1C(=O)Cn1c(C(=O)OC)cc2sc(Cl)cc21 (stereo not shown),12%
5,Cc1ccc(OCCOCCN2CCN(C)CC2)c([N+](=O)[O-])c1,5.81%
6,Cc1cc(NC(=O)CSc2nc3c([nH]c4ccccc43)c(=O)n2-c2ccccc2F)no1,10.9%
7,Cl.O=C1CN=C(Nc2ccccc2)N1Cc1cccs1,9.94%
8,Cc1onc(-c2ccccc2)c1-c1csc(N/N=C/c2ccccc2Cl)n1,24.9%
9,CC1Cc2nc(SCC(=O)Nc3nccs3)n(C)c(=O)c2S1 (stereo not shown),1.9%
10,O=C(Nc1cc(Cl)ccc1Cl)C1CCCO1 (stereo not shown),6.21%
11,COC(=O)c1ccc(N2NC(=O)/C(=C/c3cc(OC)c(O)c(OC)c3)C2=O)cc1,16.7%
12,O=C(CN1C(=O)NC2(CCCc3ccccc32)C1=O)NCC(F)(F)F (stereo not shown),20.4%
13,Cc1ccccc1CN(C)CC(=O)Nc1ccccc1-c1ccccc1,-7.41%
14,Cc1ccc(CNc2ncnc3c2cnn3-c2ccccc2)cc1,6.42%
15,CCCn1ncc(CN2CCC(CO)(Cc3ccc(OC)cc3)CC2)c1C,-41.9%
16,Cc1cc(C)c(S(=O)(=O)N2CCN(C(=O)c3cc4ccccc4oc3=O)CC2)c(C)c1,-6.53%
17,N#Cc1ccc(C(=O)Nc2cccc(NC(=O)c3ccco3)c2)c(F)c1,-17.3%
18,Cc1c(Cl)cccc1NC(=O)N1CCN(C(=O)c2ccco2)CC1,6.16%
19,Cc1cccc(NC(=O)CSCC(=O)Nc2nnc(C3CC3)s2)c1,14.5%
20,CC(C)NC(=O)CCCOc1ccc(Cl)cc1Cl,-17.1%
21,Cc1cc(C)nc(NS(=O)(=O)c2ccc(Br)cc2)n1,16.4%
22,CC(C)CCNc1nc(-c2ccco2)c2c(c1C#N)CCCC2,9.25%

row,SMILES,"hERG current change (%, negative = inhibition) at 10uM"
1,O=C(c1ccccc1)c1ccc(Sc2ccc([N+](=O)[O-])cc2)cc1,-7.34%
2,CC12CCC(=O)N1C(C(=O)Nc1cccc(F)c1)CS2 (stereo not shown),4.14%
3,COc1cc(-c2ccc3oc(-c4ccsc4)c(C#CC4(O)CCCCC4)c3c2)cc(OC)c1OC,7.13%
4,Cc1ccc(S(=O)(=O)N(CC(=O)N2CCOCC2)c2ccccc2F)cc1,16.3%
5,O=C(Nc1ccc2c(c1)nc1n2CCN(Cc2ccccc2)C1)c1cccs1,-13.9%
6,O=C(c1cccc([N+](=O)[O-])c1)N1CCN(Cc2ccccc2)CC1,-9.31%
7,COc1ccc(/C=C/C(=O)c2sc(-c3ccccc3)nc2C)cc1,-3.36%
8,CCOC(=O)c1c(C)nc2c(c1-c1ccc(OC)c(OC)c1)C(=O)c1ccccc1-2,-4%
9,COc1cc2c(cc1NC(=O)CC1SC(N3CCCC3)=NC1=O)oc1ccccc12 (stereo not shown),5.26%
10,CCCCN(C(=O)CSc1nnnn1-c1ccccc1OC)C1CCS(=O)(=O)C1 (stereo not shown),-6.4%
11,COc1cc(OC)nc(NC(=O)NS(=O)(=O)c2ccc(F)cc2)n1,15.1%
12,O=C1CC(NNc2nc3ccccc3s2)C(=O)N1c1ccc(F)cc1 (stereo not shown),3.25%
13,COc1ccc(C(=O)NCC(=O)NCC(=O)OCC(=O)c2ccc(C)cc2)cc1,4.23%
14,O=[N+]([O-])c1ccc(/C([O-])=C(/C(=S)Nc2ccccc2F)[n+]2ccccc2)cc1,-6.6%
15,CCSc1nnc(CNc2ccc(C)cc2)n1C,6.28%
16,S=C(NC1CCCC1)N1CCN(C/C=C/c2ccccc2)CC1,-41%
17,Cc1ccsc1/C=N\NC(=O)c1cc(C(C)(C)C)[nH]n1,-9.77%
18,Cc1nnc(SCC(=O)Nc2ccc(Br)cc2)n(N)c1=O,-1.1%
19,CCCN(CCC)Cc1c(C(=O)N/N=C/c2c[nH]c3ccccc23)nnn1-c1nonc1N,-18.5%
20,O=C(c1ccc(Cl)cc1)n1cnc2ccccc21,-7.51%
21,COc1ccc(S(=O)(=O)NC2CCCCC2)cc1C,10.8%
22,CN(C)C(=S)SCC(=O)NC(=O)NC(C)(C)C,6.73%
